# Reference: paper PMC4336329 (PLoS ONE, 2015)
# The campaign covered roughly 310,000 compounds. About 14,000 (4.5%) showed an effect of 50% or more. Effects have a minus sign here. The list shows a part of the results.
# Biological target: human ether-à-go-go-related gene (hERG) potassium channel (human, UniProt Q12809)
# Experiment: primary screen, population patch clamp on CHO cells stably expressing hERG
# 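Also: peak tail current of the secondary pulse compared with the same well before compound.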
# human ether-à-go-go-related gene (hERG) potassium channel, sequence (Q12809 whole entry, looked up): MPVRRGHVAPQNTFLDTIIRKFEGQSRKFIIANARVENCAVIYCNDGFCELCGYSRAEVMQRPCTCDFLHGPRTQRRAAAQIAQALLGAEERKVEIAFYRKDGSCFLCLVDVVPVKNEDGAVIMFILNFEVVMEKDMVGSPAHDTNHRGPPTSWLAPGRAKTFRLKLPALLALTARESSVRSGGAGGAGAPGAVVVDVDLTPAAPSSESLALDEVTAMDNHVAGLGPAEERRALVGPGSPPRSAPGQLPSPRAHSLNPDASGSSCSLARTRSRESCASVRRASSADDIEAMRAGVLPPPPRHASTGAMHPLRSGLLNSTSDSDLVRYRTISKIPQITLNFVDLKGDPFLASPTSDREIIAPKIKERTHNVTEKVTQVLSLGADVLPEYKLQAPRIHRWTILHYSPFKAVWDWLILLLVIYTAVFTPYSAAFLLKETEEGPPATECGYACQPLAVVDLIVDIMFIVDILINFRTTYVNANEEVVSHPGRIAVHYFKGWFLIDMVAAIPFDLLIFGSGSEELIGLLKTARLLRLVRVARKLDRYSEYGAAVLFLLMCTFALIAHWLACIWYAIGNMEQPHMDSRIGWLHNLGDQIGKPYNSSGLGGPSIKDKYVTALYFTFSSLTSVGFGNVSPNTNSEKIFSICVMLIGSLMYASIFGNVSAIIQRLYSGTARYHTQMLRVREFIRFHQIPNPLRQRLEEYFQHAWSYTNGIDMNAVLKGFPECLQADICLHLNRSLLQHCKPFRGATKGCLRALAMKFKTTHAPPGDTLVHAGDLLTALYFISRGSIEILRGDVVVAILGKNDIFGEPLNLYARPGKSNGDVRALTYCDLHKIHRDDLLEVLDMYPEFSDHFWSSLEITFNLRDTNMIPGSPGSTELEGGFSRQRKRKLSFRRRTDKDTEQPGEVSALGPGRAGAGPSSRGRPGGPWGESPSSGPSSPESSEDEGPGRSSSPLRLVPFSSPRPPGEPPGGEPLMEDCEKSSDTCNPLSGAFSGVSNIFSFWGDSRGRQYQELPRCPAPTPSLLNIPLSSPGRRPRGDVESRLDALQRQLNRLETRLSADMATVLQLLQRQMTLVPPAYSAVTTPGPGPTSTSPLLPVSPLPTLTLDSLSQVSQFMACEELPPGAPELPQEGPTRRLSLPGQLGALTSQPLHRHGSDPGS
row,SMILES,"hERG current change (%, negative = inhibition) at 10uM"
1,Cc1oc2c(CN3CCCC3)c(O)ccc2c(=O)c1Oc1ccccc1Br,8.7%
2,Cc1cc(C)n2c(Br)c(CN3CCCC(C)C3)nc2n1 (stereo not drawn),28.6%
3,CC(=O)Nc1nc2ccccc2[nH]1,-0.326%
4,O=[N+]([O-])c1ccc2nc(NS(=O)(=O)c3ccccc3[N+](=O)[O-])sc2c1,15.7%
5,CC1(C)CC(NC(=O)C(Cl)(Cl)Cl)CC(C)(C)N1,-3.76%
6,CC1CCN(C(=O)CSc2nnc(Cc3cccn3C)n2-c2ccc(F)cc2)CC1,-9.06%
7,CN(Cc1ccccn1)C(=O)C1CCC(=O)N(CCc2ccc(Cl)cc2)C1 (stereo not drawn),-53.1%
8,Clc1cccc(CN2CCSCC2)c1,13.7%
9,CN(C)CCn1c(SCc2ccccc2C#N)nc2c(sc3ccccc32)c1=O.Cl,-28%
10,COc1ccc(C2/C=C\CN(C(=O)C3CCCCC3)CC(=O)N2Cc2ccc(F)cc2)cc1 (stereo not drawn),-10.1%
11,CCOC(=O)N/N=C(\C)c1ccc(-n2cnnn2)cc1,17.2%
12,COC(=O)CNc1c(-c2ccccn2)nc2ccc(Br)cn12,-7.34%
13,C=CCC1(CC=C)CCCN1C(=O)C1CCC(=O)N(CCc2ccc(Cl)cc2)C1 (stereo not drawn),-60%
14,CNC(=O)CSc1nc2ccccc2c(=O)n1CCc1ccccc1,19.9%
15,COc1ccccc1NC(=S)N1CCN(C(=O)C2CCCO2)CC1 (stereo not drawn),11.9%
16,COc1cc(Cl)ccc1OCc1cc(C(=O)NCCCN2CCCC2=O)no1,-18.9%
17,COc1ccc(N(C(=O)CNC(=O)c2cccs2)C(C(=O)NCC2CCCO2)c2ccccc2)cc1OC (stereo not drawn),4.94%
18,Cc1ccc(S(=O)(=O)NCc2ccccc2)cc1C(=O)NCC(C)(C)N1CCOCC1,-19.6%
19,CC1CN(C(=O)Nc2cccc(C(F)(F)F)c2)CC(C)O1 (stereo not drawn),8.82%
20,CCOC(=O)NC(NS(=O)(=O)c1ccccc1)(C(=O)OCC)C(F)(F)F (stereo not drawn),-1.93%
21,CCCn1c(N)c(NCCN2CCOCC2)c(=O)n(CC(=O)NCc2ccccc2)c1=O,24.6%
22,COc1ccc(OC)c(N=C2C(=O)Nc3ccccc32)c1,0.392%
23,O=S(=O)(Nc1ccc(F)cc1)N1CCCCCC1,-15.6%

row,SMILES,"hERG current change (%, negative = inhibition) at 10uM"
1,N#Cc1ccc(S(=O)(=O)NCC(=O)OCC(=O)N2CCCC2=O)cc1,2.33%
2,CCOC(=O)CCCCC(=O)c1[nH]c(=O)[nH]c1CSc1nc(-c2ccccc2)c(C#N)c(=O)[nH]1,17.1%
3,COc1ccc(OC)c(NC(=O)c2ccc3c(c2)C(=O)N(CC2CCCO2)C3=O)c1 (stereo not drawn),1.37%
4,O=C1CCCN1C(=O)CSc1nnnn1-c1ccccc1,-4.82%
5,Cc1ccc(N2C(=O)C3CCCN3C2=S)cc1 (stereo not drawn),15.3%
6,Cc1cc2nc[nH]c2cc1[N+](=O)[O-],12.2%
7,Cc1ccc(NC2=C(Cl)C(=O)OC2OC(C)C)c(C)c1 (stereo not drawn),-28.9%
8,O=C(O)C1CCCCC1C(=O)NCCc1cccc(Cl)c1 (stereo not drawn),-0.556%
9,O=C(O)C1(c2ccccc2)CCN(S(=O)(=O)c2ccc(Cl)cc2)CC1,23.2%
10,O=C(O)CCn1c(SCCc2ccccc2)nc2ccccc21,15.5%
11,CCCCC(SCC(=O)Nc1ccccc1)C(=O)O (stereo not drawn),12.9%
12,O=C(NCc1cccnc1)C(=O)NCC1OCCN1S(=O)(=O)c1cc(F)ccc1F (stereo not drawn),-9.68%
13,Cc1cc(C)c(Cn2c3ccccc3c3cnn(CC(=O)NCc4ccccn4)c(=O)c32)c(C)c1,13.4%
14,Cn1cc(Cl)c(C(=O)OCC(=O)Nc2nc(-c3ccc(Br)cc3)cs2)n1,0.0195%
15,CC(=O)Nc1ccc(SCC(=O)NC(=O)c2ccccc2Br)cc1,0.691%
16,O=C(CCCn1c(=S)[nH]c2ccccc2c1=O)N1CCCCC1,-10.4%
17,O=C(CN(c1ccc(F)cc1)S(=O)(=O)c1ccccc1)NC1CCCCCC1,23.7%
18,Cc1c(NC(=O)C(C)Sc2ccccc2)c(=O)n(-c2ccccc2)n1C (stereo not drawn),-1.92%
19,COCCCNC(=O)CCNS(=O)(=O)c1ccc(C)cc1,-1.45%
20,C/C(=N\NC(=O)COc1ccc(C#N)cc1)c1ccc(N2CCOCC2)cc1,-4.36%
21,O=c1oc(-c2cccs2)nc2ccc(Br)cc12,8.92%
22,CCCCN(C)C(=O)CCC(=O)NNc1nc2ccccc2c2nc(C)nn12,-16%
